The test system of this test is NCI-H322M lung. Put plainly: NCI anticancer screen, dose series, 48 h.

The structures appear in SMILES notation.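 Method: 48-hour compound exposure of cells in 96-well plates, five concentrations, linear interpolation of endpoints. GI50: concentration for 50% inhibition of growth. TGI: total growth inhibition.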 Numbered stars: 1 amine (or outer) side, 2 acyl side, 3 side chain; on linkers, the order of the positions; unused ones are H or OH. Square brackets hold non-standard residues; d marks the D form. Peptide text beside a SMILES is read from it. ξ: configuration not given here. X14 = CC[C@@H](C)C(N[*:1])C(=O)[*:2]; ξR = N=C(N)NCCCC(N)C(=O)O; ξI = CCC(C)C(N)C(=O)O; ξL = CC(C)CC(N)C(=O)O; ξK = NCCCCC(N)C(=O)O; ξV = CC(C)C(N)C(=O)O; ξA = CC(N)C(=O)O

`Nc1nc(-c2cccc([N+](=O)[O-])c2)cc(-c2cc(-c3cccc([N+](=O)[O-])c3)nc(N)n2)n1`: the TGI is more than 100 µM.

The compound `CC(=O)O[C@H]1[C@@H](OC(C)=O)C(C)(C)/C=C/[C@H](C)C(=O)[C@@]2(OC(C)=O)C[C@@](C)(OC(C)=O)[C@H](OC(C)=O)[C@@H]2[C@H]2OC(=O)CC[C@@]2(OC(=O)c2ccccc2)[C@@H]1OCC(C)C` came in with a TGI of more than 100 µM.

`COc1cc(/C=C(\OC(C)=O)c2ccc3c(c2)OCO3)cc(OC)c1OC` had a TGI of 73.8 µM.

Compound `CC12CCC(C(Nc3ccccn3)C1=O)C2(C)C` (configuration not stated) had a TGI of more than 100 µM.

Compound `C#CC(O)/C=C/C(O)CCCC(O)CC#CC(O)C#CC(O)CCCC(O)/C=C/CCCC(=O)CCCCCCCCCCCCCCCC(O)C(O)C#CC(=O)O` (configuration not stated) had a TGI of more than 50 µM.

In the case of `CCSc1nnc(-c2ccc3ccccc3c2O)n1-c1ccc(Cl)cc1`, the GI50 is 7.46 µM and the TGI is more than 100 µM.

The compound `COc1ccc(/C=N/NC(=O)c2cnc3[nH]c(=O)n(C)c(=O)c3c2)cc1` returned a TGI of more than 100 µM.

Regarding `CCOC(=O)c1cc(C(=O)c2cc(OC)c(OC)c(OC)c2)n2ccccc12`, the GI50 was 0.713 µM and the TGI is more than 100 µM.

Turning to `CCC(C)C1NC(=O)C(CC(C)C)NC(=O)C(C)NC(=O)C(C(C)C)NC(=O)C(CCCCN)NC(=O)C(CC(C)C)NC(=O)C(C(C)C)NC(=O)[C@H](C)NC(=O)C(C(C)CC)NC(=O)C(CCCN=C(N)N)NC(=O)C(CCCCN)NC(=O)C(CCCN=C(N)N)NC(=O)C(CCCCN)NC(=O)C([C@H](C)CC)NC(=O)C(CCCCN)NC1=O` (some centres not stated) (cyclo(A[ξV][ξL][ξK][ξV][ξA][ξL][ξI][ξK][X14][ξK][ξR][ξK][ξR][ξI])), the GI50 was 2.86 µM and the TGI worked out at 11 µM.

In the case of `O=C1NN(c2ccccc2)C(=O)/C1=C/c1ccc(Br)o1`, the GI50 is 12.8 µM and the TGI was 25.6 µM.

Take `Cc1ccc(C(=O)Nc2ccc(S(=O)(=O)O)c3cc(S(=O)(=O)O)cc(S(=O)(=O)O)c23)cc1NC(=O)c1cccc(NC(=O)Nc2cccc(C(=O)Nc3cc(C(=O)Nc4ccc(S(=O)(=O)O)c5cc(S(=O)(=O)O)cc(S(=O)(=O)O)c45)ccc3C)c2)c1` (tested in a mixture with another compound): the TGI is more than 50 µM.

Take `O=C(N/N=C\c1ccccc1)Nc1cccc2ccccc12`: the TGI was more than 100 µM.

On to `C=C(C(=O)OC)c1cc2ccccc2n1S(=O)(=O)c1ccccc1`, for which the TGI was 26.7 µM.

As to `N#C/C(=C\c1ccc(Br)cc1)n1nnc2ccccc21`, the GI50 is 2 µM and the TGI was determined as 7.31 µM.

The compound `COC(=O)C1C(OCc2ccccc2)C2CCC1(OC)C=C2C` (configuration not stated) gave a TGI of more than 100 µM.

In the case of `CC(NC(=O)C(N)CC(=O)O)NC(=O)N(C)C(C)(C)C` (configuration not stated), the TGI is more than 100 µM.

For `O=C(NCc1ccncc1)C1COc2cc(-c3cc(=O)c4ccccc4o3)ccc2O1` (configuration not stated), the TGI was more than 100 µM.

`O=C1CCCC2=C1CC1=C(CCCC1=O)N2c1ccccc1` registered a TGI of more than 100 µM.

For the compound `CC(=O)NC(Cc1ccc(OP(=O)(OCc2ccc([N+](=O)[O-])o2)N(C)CCCCCl)cc1)C(=O)NC(C)c1ccc(OCC2CCCCC2)c(C(N)=O)c1` (configuration not stated), the TGI amounted to 21.2 µM.

As for `O=C(Nc1cccc(-n2cc(-c3ccncc3)c(-c3ccc(O)c(Cl)c3)n2)c1)Nc1cccc(C(F)(F)F)c1`, the GI50 was 2.44 µM and the TGI turned out to be 7.87 µM.

As to `C=CCCCCCCCCCOC1C=CC(OC(C)=O)C(COC(C)=O)O1` (configuration not stated), the TGI is more than 100 µM.

Values taken from PubChem BioAssay (NCI).
